# Assay results from the supplement of paper PMC8728848.
# Some of the results follow.
# B1: Cohesin-hLangerin (Homo sapiens) (protein)
# chain: LDDLDAVRIKVDTVNAKPGDTVRIPVRFSGIPSKGIANCDFVYSYDPNVLEIIEIEPGDIIVDPNPDKSFDTAVYPDRKIIVFLFAEDSGTGAYAITKDGVFATIVAKVKEGAPNGLSVIKFVEVGGFANNDLVEQKTQFFDGGANVGDTTEPATPTTPVTTPTTTDDLDAASYPRFMGTISDVKTNVQLLKGRVDNISTLDSEIKKNSDGMEAAGVQIQMVNESLGYVRSQFLKLKTSVEKANAQIQILTRSWEEVSTLNAQIPELKSDLEKASALNTKIRALQGSLENMSKLLKRQNDILQVVSQGWKYFKGNFYYFSLIPKTWYSAEQFCVSRNSHLTSVTSESEQEFLYKTAGGLIYWIGLTKAGMEGDWSWVDDTPFNKVQSARFWIPGEPNNAGNNEHCGNIKAPSLQAWNDAPCDKTFLFICKRPYVPSEPHHHHHH
# How the values were obtained:
# Assay in all cases: glycan array binding signal (z-score within array); higher = stronger binding
# Details in all cases: glycan notation: IUPAC condensed, linker removed
# [1] = target: Neu5Ac(a2-3)GalNAc
# Procedure, shortened: (§1)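 Glycan array data came from 3228 arrays in the Consortium for Functional Glycomics database, and only arrays with an available protein sequence were kept. Glycan names were put into IUPAC-condensed notation, and columns mapping to the same glycan were averaged. The binding signal is a within-array Z-score, averaged across arrays of one protein sequence run at different concentrations or buffers and across linkers. A negative Z-score can be read as non-binding.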
# [2] = target: Neu5Ac(a2-3)GalNAc(b1-4)GlcNAc
# Procedure, shortened: as §1
# [3] = target: Neu5Ac(a2-3)[GalNAc(b1-4)]Gal(b1-4)Glc
# Procedure, shortened: as §1
# [4] = target: Neu5Ac(a2-3)[GalNAc(b1-4)]Gal(b1-4)GlcNAc
# Procedure, shortened: as §1
# [5] = target: Neu5Ac(a2-3)[GalNAc(b1-4)]Gal(b1-4)GlcNAc(b1-3)GalNAc
# Procedure, shortened: as §1
# [6] = target: Neu5Ac(a2-3)[Neu5Ac(a2-6)]GalNAc
# Procedure, shortened: as §1
# [7] = target: Neu5Ac(a2-6)Gal
# Procedure, shortened: as §1
# [8] = target: Neu5Ac(a2-6)Gal(b1-3)GlcNAc(b1-3)[Gal(b1-4)GlcNAc(b1-6)]Gal(b1-4)Glc
# Procedure, shortened: as §1
# [9] = target: Neu5Ac(a2-6)Gal(b1-4)Glc
# Procedure, shortened: as §1
# [10] = target: Neu5Ac(a2-6)Gal(b1-4)GlcNAc
# Procedure, shortened: as §1
# [11] = target: Neu5Ac(a2-6)Gal(b1-4)GlcNAc(b1-2)Man
# Procedure, shortened: as §1
# [12] = target: Neu5Ac(a2-6)Gal(b1-4)GlcNAc(b1-2)Man(a1-3)Man(b1-4)GlcNAc(b1-4)GlcNAc
# Procedure, shortened: as §1
# [13] = target: Neu5Ac(a2-6)Gal(b1-4)GlcNAc(b1-2)Man(a1-3)[Gal(b1-4)GlcNAc(b1-2)Man(a1-6)]Man(b1-4)GlcNAc(b1-4)GlcNAc
# Procedure, shortened: as §1
# [14] = target: Neu5Ac(a2-6)Gal(b1-4)GlcNAc(b1-2)Man(a1-3)[GlcNAc(b1-2)Man(a1-6)]Man(b1-4)GlcNAc(b1-4)GlcNAc
# Procedure, shortened: as §1
# [15] = target: Neu5Ac(a2-6)Gal(b1-4)GlcNAc(b1-2)Man(a1-3)[GlcNAc(b1-4)][Neu5Ac(a2-6)Gal(b1-4)GlcNAc(b1-2)Man(a1-6)]Man(b1-4)GlcNAc(b1-4)GlcNAc
# Procedure, shortened: as §1
# [16] = target: Neu5Ac(a2-6)Gal(b1-4)GlcNAc(b1-2)Man(a1-3)[Man(a1-6)]Man(b1-4)GlcNAc(b1-4)GlcNAc
# Procedure, shortened: as §1
# [17] = target: Neu5Ac(a2-6)Gal(b1-4)GlcNAc(b1-2)Man(a1-3)[Neu5Ac(a2-3)Gal(b1-4)GlcNAc(b1-2)Man(a1-6)]Man(b1-4)GlcNAc(b1-4)GlcNAc
# Procedure, shortened: as §1
# [18] = target: Neu5Ac(a2-6)Gal(b1-4)GlcNAc(b1-2)Man(a1-3)[Neu5Ac(a2-6)Gal(b1-4)GlcNAc(b1-2)Man(a1-6)]Man(b1-4)GlcNAc(b1-4)GlcNAc
# Procedure, shortened: as §1
# [19] = target: Neu5Ac(a2-6)Gal(b1-4)GlcNAc(b1-2)Man(a1-3)[Neu5Ac(a2-6)Gal(b1-4)GlcNAc(b1-2)Man(a1-6)]Man(b1-4)GlcNAc(b1-4)[Fuc(a1-6)]GlcNAc
# Procedure, shortened: as §1
# [20] = target: Neu5Ac(a2-6)Gal(b1-4)GlcNAc(b1-2)Man(a1-6)Man(b1-4)GlcNAc(b1-4)GlcNAc
# Procedure, shortened: as §1
# [21] = target: Neu5Ac(a2-6)Gal(b1-4)GlcNAc(b1-2)Man(a1-6)[Gal(b1-4)GlcNAc(b1-2)Man(a1-3)]Man(b1-4)GlcNAc(b1-4)GlcNAc
# Procedure, shortened: as §1
# [22] = target: Neu5Ac(a2-6)Gal(b1-4)GlcNAc(b1-2)Man(a1-6)[GlcNAc(b1-2)Man(a1-3)]Man(b1-4)GlcNAc(b1-4)GlcNAc
# Procedure, shortened: as §1
# [23] = target: Neu5Ac(a2-6)Gal(b1-4)GlcNAc(b1-2)Man(a1-6)[Man(a1-3)]Man(b1-4)GlcNAc(b1-4)GlcNAc
# Procedure, shortened: as §1
# [24] = target: Neu5Ac(a2-6)Gal(b1-4)GlcNAc(b1-2)[Neu5Ac(a2-6)Gal(b1-4)GlcNAc(b1-4)]Man(a1-3)[GlcNAc(b1-4)][Neu5Ac(a2-6)Gal(b1-4)GlcNAc(b1-2)[Neu5Ac(a2-6)Gal(b1-4)GlcNAc(b1-6)]Man(a1-6)]Man(b1-4)GlcNAc(b1-4)GlcNAc
# Procedure, shortened: as §1
# [25] = target: Neu5Ac(a2-6)Gal(b1-4)GlcNAc(b1-2)[Neu5Ac(a2-6)Gal(b1-4)GlcNAc(b1-4)]Man(a1-3)[GlcNAc(b1-4)][Neu5Ac(a2-6)Gal(b1-4)GlcNAc(b1-4)Man(a1-6)]Man(b1-4)GlcNAc(b1-4)GlcNAc
# Procedure, shortened: as §1
# [26] = target: Neu5Ac(a2-6)Gal(b1-4)GlcNAc(b1-2)[Neu5Ac(a2-6)Gal(b1-4)GlcNAc(b1-6)]Man(a1-6)[Neu5Ac(a2-6)Gal(b1-4)GlcNAc(b1-2)Man(a1-3)][GlcNAc(b1-4)]Man(b1-4)GlcNAc(b1-4)GlcNAc
# Procedure, shortened: as §1
# [27] = target: Neu5Ac(a2-6)Gal(b1-4)GlcNAc(b1-3)Gal(b1-3)GlcNAc
# Procedure, shortened: as §1
# [28] = target: Neu5Ac(a2-6)Gal(b1-4)GlcNAc(b1-3)Gal(b1-4)GlcNAc
# Procedure, shortened: as §1
# [29] = target: Neu5Ac(a2-6)Gal(b1-4)GlcNAc(b1-3)Gal(b1-4)GlcNAc(b1-2)Man(a1-3)[Neu5Ac(a2-6)Gal(b1-4)GlcNAc(b1-3)Gal(b1-4)GlcNAc(b1-2)Man(a1-6)]GalNAc
# Procedure, shortened: as §1
# [30] = target: Neu5Ac(a2-6)Gal(b1-4)GlcNAc(b1-3)Gal(b1-4)GlcNAc(b1-3)Gal(b1-4)GlcNAc
# Procedure, shortened: as §1
# [31] = target: Neu5Ac(a2-6)Gal(b1-4)GlcNAc(b1-3)Gal(b1-4)GlcNAc(b1-3)Gal(b1-4)GlcNAc(b1-2)Man(a1-3)[Neu5Ac(a2-6)Gal(b1-4)GlcNAc(b1-3)Gal(b1-4)GlcNAc(b1-3)Gal(b1-4)GlcNAc(b1-2)Man(a1-6)]GalNAc
# Procedure, shortened: as §1
# [32] = target: Neu5Ac(a2-6)Gal(b1-4)GlcNAc(b1-3)Gal(b1-4)GlcNAc(b1-3)GalNAc
# Procedure, shortened: as §1
# [33] = target: Neu5Ac(a2-6)Gal(b1-4)GlcNAc(b1-3)Gal(b1-4)GlcNAc(b1-3)[Neu5Ac(a2-6)Gal(b1-4)GlcNAc(b1-3)Gal(b1-4)GlcNAc(b1-6)]GalNAc
# Procedure, shortened: as §1
# [34] = target: Neu5Ac(a2-6)Gal(b1-4)GlcNAc(b1-3)Gal(b1-4)GlcNAc(b1-6)[Gal(b1-3)]GalNAc
# Procedure, shortened: as §1
# [35] = target: Neu5Ac(a2-6)Gal(b1-4)GlcNAc(b1-3)Gal(b1-4)[Fuc(a1-3)]GlcNAc(b1-3)Gal(b1-4)[Fuc(a1-3)]GlcNAc
# Procedure, shortened: as §1
# [36] = target: Neu5Ac(a2-6)Gal(b1-4)GlcNAc(b1-3)GalNAc
# Procedure, shortened: as §1
# [37] = target: Neu5Ac(a2-6)Gal(b1-4)GlcNAc(b1-3)[Neu5Ac(a2-6)Gal(b1-4)GlcNAc(b1-6)]GalNAc
# Procedure, shortened: as §1
binder,measurement,setting,value
B1,glycan array binding signal (z-score),[1],-0.414
same,glycan array binding signal (z-score),[2],-0.426
same,glycan array binding signal (z-score),[3],-0.41
same,glycan array binding signal (z-score),[4],-0.366
same,glycan array binding signal (z-score),[5],-0.379
same,glycan array binding signal (z-score),[6],-0.386
same,glycan array binding signal (z-score),[7],-0.428
same,glycan array binding signal (z-score),[8],-0.442
same,glycan array binding signal (z-score),[9],-0.412
same,glycan array binding signal (z-score),[10],-0.428
same,glycan array binding signal (z-score),[11],-0.273
same,glycan array binding signal (z-score),[12],-0.43
same,glycan array binding signal (z-score),[13],-0.438
same,glycan array binding signal (z-score),[14],-0.441
same,glycan array binding signal (z-score),[15],-0.444
same,glycan array binding signal (z-score),[16],-0.439
same,glycan array binding signal (z-score),[17],-0.378
same,glycan array binding signal (z-score),[18],-0.398
same,glycan array binding signal (z-score),[19],-0.303
same,glycan array binding signal (z-score),[20],-0.442
same,glycan array binding signal (z-score),[21],-0.45
same,glycan array binding signal (z-score),[22],-0.405
same,glycan array binding signal (z-score),[23],-0.442
same,glycan array binding signal (z-score),[24],-0.323
same,glycan array binding signal (z-score),[25],-0.404
same,glycan array binding signal (z-score),[26],-0.442
same,glycan array binding signal (z-score),[27],-0.252
same,glycan array binding signal (z-score),[28],-0.441
same,glycan array binding signal (z-score),[29],-0.232
same,glycan array binding signal (z-score),[30],-0.358
same,glycan array binding signal (z-score),[31],-0.159
same,glycan array binding signal (z-score),[32],-0.422
same,glycan array binding signal (z-score),[33],-0.309
same,glycan array binding signal (z-score),[34],-0.407
same,glycan array binding signal (z-score),[35],-0.061
same,glycan array binding signal (z-score),[36],-0.381
same,glycan array binding signal (z-score),[37],-0.427
